Measured values: the supplement of paper PMC11880418
Counter-ions that a name gives are not always drawn. The list shows a part of the results. The data scatter; read single values as rough.

How the values were obtained:
Assay in all cases: ALDHbr (CSC) cell proportion score relative to DMSO vehicle (ratio to DMSO); breast (SUM159) / gastric (MKN45) / pancreatic (PANC1) / colon cancer lines; ALDHbr cells have high ALDH activity and are rich in cancer stem cells (CSC); higher = more CSC (ALDHbr) cells remaining
Details in all cases: 10 µM; 72 h
MKN45 = system: MKN45
PANC1 = system: PANC1
SUM159 = system: SUM159
T84 = system: T84
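Further: High-content imaging of ALDEFLUOR-stained cells with Hoechst-labelled nuclei in 384-well plates, triplicate wells, scored as Z-score against 0.1% DMSO vehicle, negative meaning fewer ALDHbr cells.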

Compound | ALDHbr (MKN45) | ALDHbr (PANC1) | ALDHbr (SUM159) | ALDHbr (T84)
CC(C(=O)O)c1ccc(-c2ccccc2)c(F)c1 (stereo not given) [Flurbiprofen] | 1.05 | 0.916 | 1 | 1.06
O=C(c1ccccc1)c1ccc2n1CCC2C(=O)O (stereo not given) [Ketorolac tromethamine] | 0.947 | 1.07 | 0.958 | 0.952
CC(=O)Oc1cc(C(F)(F)F)ccc1C(=O)O [Triflusal] | 1.13 | 0.953 | 1.15 | 0.986
CCCCc1cc2ccccc2c(OCCN(C)C)n1 [Dimethisoquin hydrochloride] | 0.815 | 0.889 | 0.647 | 0.893
Cc1c(N)c(=O)n(-c2ccccc2)n1C [Ampyrone] | 0.874 | 0.737 | 1.14 | 0.795
CC(=O)OCC(=O)[C@@]1(O)[C@H](C)C[C@H]2[C@@H]3CCC4=CC(=O)C=C[C@]4(C)[C@@]3(F)[C@@H](O)C[C@@]21C [Dexamethasone acetate] | 0.901 | 0.588 | 1.01 | 0.974
CC(C)(O/N=C(\C(=O)N[C@@H]1C(=O)N2C(C(=O)[O-])=C(C[n+]3ccccc3)CS[C@H]12)c1csc(N)n1)C(=O)O [Ceftazidime pentahydrate] | 1.02 | 0.896 | 0.846 | 1.02
CC(C)C[C@H](NC(=O)[C@@H](O)[C@H](N)Cc1ccccc1)C(=O)O [Ubenimex] | 0.34 | 0.878 | 0.697 | 0.976
CC(C)NC[C@H](O)COc1ccc(CC(N)=O)cc1 [(S)-(-)-Atenolol] | 0.975 | 0.978 | 1.07 | 0.829
NCCc1ccc(O)c(O)c1 [Dopamine hydrochloride] | 0.941 | 0.985 | 1.37 | 1.09
O=c1oc2ccccc2c(O)c1Cc1c(O)c2ccccc2oc1=O [Dicumarol] | 0.971 | 0.894 | 1.07 | 1.15
Nc1c2c(nc3ccccc13)CCCC2 [Tacrine hydrochloride] | 1.49 | 0.94 | 1.06 | 0.783
COC(=O)C1=C(C)NC(C)=C(C(=O)OC(C)C)C1c1cccc2nonc12 (stereo not given) [Isradipine] | 1.09 | 0.867 | 0.65 | 0.869
CNC(=C[N+](=O)[O-])NCCSCc1ccc(CN(C)C)o1 [Ranitidine hydrochloride] | 1.16 | 0.892 | 1.03 | 0.822
CN[C@@H]1[C@@H](O)[C@@H](O[C@@H]2[C@@H](O)[C@H](O[C@H]3OC(CN)=CC[C@H]3N)[C@@H](N)C[C@H]2N)OC[C@]1(C)O [Sisomicin sulfate] | 0.892 | 0.871 | 1.06 | 1.11
Cc1scc2c1N(C(=O)CN1CCN(C)CC1)c1ccccc1NC2=O [Telenzepine dihydrochloride] | 0.971 | 0.896 | 0.844 | 0.949
CC(=O)N(O)CCCCCNC(=O)CCC(=O)N(O)CCCCCNC(=O)CCC(=O)N(O)CCCCCN [Deferoxamine mesylate] | 0.361 | 1.14 | 1.29 | 0.726
CC(CCc1ccc(O)cc1)NCCc1ccc(O)c(O)c1 (stereo not given) [Dobutamine hydrochloride] | 1.1 | 0.742 | 2.01 | 1.07
CC(CN(C)C)CN1c2ccccc2CCc2ccccc21 (stereo not given) [Trimipramine maleate salt] | 1 | 1.31 | 0.973 | 0.791
COc1ccc2c(c1)c(CC(=O)O)c(C)n2C(=O)c1ccc(Cl)cc1 [Indomethacin] | 1.07 | 0.755 | 0.908 | 0.911
CC1(C)S[C@@H]2[C@H](NC(=O)Cc3ccccc3)C(=O)N2[C@H]1C(=O)O [Benzylpenicillin sodium] | 1.01 | 0.908 | 1.04 | 0.845
COC1=CC(=O)C[C@@H](C)[C@]12Oc1c(Cl)c(OC)cc(OC)c1C2=O [Griseofulvin] | 1.18 | 0.733 | 1.54 | 1.11
CCC(=O)[C@@]1(C)[C@H](C)C[C@H]2[C@@H]3CCC4=CC(=O)C=C[C@]4(C)[C@H]3[C@@H](O)C[C@@]21C [Rimexolone] | 1.18 | 0.752 | 1.56 | 0.91
Clc1ccc(C(Cn2ccnc2)OCc2c(Cl)cccc2Cl)c(Cl)c1 (stereo not given) [Isoconazole] | 0.978 | 0.859 | 0.988 | 0.991
CS(=O)(=O)c1ccc([C@@H](O)[C@@H](CF)NC(=O)C(Cl)Cl)cc1 [Florfenicol] | 0.533 | 0.73 | 1.36 | 0.816
CN1CCC(=C2c3ccccc3C=Cc3ccccc32)CC1 [Cyproheptadine hydrochloride] | 0.997 | 1.01 | 0.643 | 0.693
COc1cc2nc(N3CCN(C(=O)C4COc5ccccc5O4)CC3)nc(N)c2cc1OC (stereo not given) [Doxazosin mesylate] | 0.838 | 0.642 | 0.725 | 0.717
OCC(O)CN1CCN(c2ccccc2)CC1 (racemic) [Dropropizine (R,S)] | 1.01 | 0.905 | 1.03 | 0.859

Compound | ALDHbr (MKN45) | ALDHbr (PANC1) | ALDHbr (SUM159) | ALDHbr (T84)
CCN(CC)C(=O)c1ccc(O)c(OC)c1 [Ethamivan] | 1.06 | 0.922 | 1.06 | 0.987
CC(C)NC[C@@H](O)COc1cccc2ccccc12 [(R)-Propranolol hydrochloride] | 1.4 | 0.876 | 1.07 | 0.889
CC1CC(OC(=O)c2ccccc2O)CC(C)(C)C1 (stereo not given) [Homosalate] | 0.904 | 0.951 | 1.01 | 1.01
Clc1ccc2c(c1)CCc1cccnc1C2=C1CCNCC1 [Desloratadine] | 1.18 | 1.12 | 0.649 | 0.592
CC(C[N+](C)(C)C)OC(N)=O (stereo not given) [Bethanechol chloride] | 1.03 | 1.03 | 0.878 | 0.817
CC(=O)Nc1ccc(O)cc1 [Acetaminophen] | 0.932 | 0.884 | 0.895 | 0.916
CCCCOc1ccc(OCCCN2CCOCC2)cc1 [Pramoxine hydrochloride] | 0.694 | 0.96 | 1.1 | 1.02
CO/N=C(\C(=O)N[C@@H]1C(=O)N2C(C(=O)O)=C(COC(C)=O)CS[C@H]12)c1csc(N)n1 [Cefotaxime sodium salt] | 0.995 | 0.9 | 0.966 | 0.979
CC(C)(C(=O)c1cccnc1)c1cccnc1 [Metyrapone] | 0.901 | 0.93 | 1.18 | 0.923
CC(C)(C)C(=O)OCOC(=O)[C@@H]1N2C(=O)[C@@H](/N=C/N3CCCCCC3)[C@H]2SC1(C)C [Pivmecillinam hydrochloride] | 1.14 | 1.03 | 0.704 | 1.02
COc1cc(N)c(Cl)cc1C(=O)NC1CCN(CCCOc2ccc(F)cc2)CC1OC (stereo not given) [Cisapride] | 0.949 | 0.779 | 1.08 | 0.89
CCN(CC)CCCC(C)Nc1ccnc2cc(Cl)ccc12 (stereo not given) [Chloroquine diphosphate] | 1.2 | 0.897 | 0.824 | 0.836
CCC(=O)O[C@]1(C(=O)SCF)[C@H](C)C[C@H]2[C@@H]3C[C@H](F)C4=CC(=O)C=C[C@]4(C)[C@@]3(F)[C@@H](O)C[C@@]21C [Fluticasone propionate] | 1.26 | 0.658 | 1.52 | 0.968
NC[C@H]1O[C@H](O[C@H]2[C@H](O[C@@H]3O[C@H](CO)[C@@H](O)[C@H]3O)[C@@H](O)[C@H](N)C[C@@H]2N)[C@H](N)[C@@H](O)[C@@H]1O [Ribostamycin sulfate salt] | 0.964 | 0.829 | 0.98 | 1.01
COCCOC(=O)C1=C(C)NC(C)=C(C(=O)OC(C)C)C1c1cccc([N+](=O)[O-])c1 (stereo not given) [Nimodipine] | 0.666 | 0.705 | 0.701 | 0.921
O=C(COc1ccc(Cl)cc1)N1CCN(Cc2ccc3c(c2)OCO3)CC1 [Fipexide hydrochloride] | 0.715 | 0.665 | 1.2 | 0.984
CN(C)CCC=C1c2ccccc2CCc2ccccc21 [Amitryptiline hydrochloride] | 1.17 | 1.22 | 0.767 | 0.886
COc1ccc(Cl)cc1C(=O)NCCc1ccc(S(=O)(=O)NC(=O)NC2CCCCC2)cc1 [Glibenclamide] | 1.25 | 0.841 | 1.68 | 1.03
Nc1ccc(S(N)(=O)=O)cc1 [Sulfanilamide] | 1.04 | 0.982 | 0.861 | 1.18
CC(C)N1CCN(c2ccc(OCC3COC(Cn4cncn4)(c4ccc(Cl)cc4Cl)O3)cc2)CC1 (stereo not given) [Terconazole] | 0.539 | 0.756 | 0.741 | 0.126
CCc1nn(CCCN2CCN(c3cccc(Cl)c3)CC2)c(=O)n1CCOc1ccccc1 [Nefazodone hydrochloride] | 0.645 | 1.05 | 1.29 | 0.911
CN1[C@@H]2CC[C@H]1C[C@@H](OC(c1ccccc1)c1ccccc1)C2 [Benztropine mesylate] | 0.768 | 1.06 | 1.03 | 0.907
COc1cccc(OC)c1C(=O)N[C@@H]1C(=O)N2[C@@H]1SC(C)(C)[C@@H]2C(=O)O [Methicillin sodium] | 1.07 | 0.988 | 0.907 | 1.03
CCCN(CCC)S(=O)(=O)c1ccc(C(=O)O)cc1 [Probenecid] | 1.1 | 0.908 | 0.855 | 0.998
O=C(c1ccc(OCCN2CCCCC2)cc1)c1c(-c2ccc(O)cc2)sc2cc(O)ccc12 [Raloxifene hydrochloride] | 0.419 | 0.772 | 0.456 | 0.227
CC(Oc1c(Cl)cccc1Cl)C1=NCCN1 (stereo not given) [Lofexidine] | 1.09 | 0.919 | 1.57 | 0.895
CC1(C)O[C@@H]2C[C@H]3[C@@H]4C[C@H](F)C5=CC(=O)C=C[C@]5(C)[C@@]4(F)[C@@H](O)C[C@]3(C)[C@]2(C(=O)CO)O1 [Fluocinolone acetonide] | 0.897 | 0.563 | 1.12 | 1.02
